Measured values taken from patent US11912664B2, “Determining small molecule-protein and protein-protein interactions” (President and Fellows of Harvard College, priority 2017, dated 2024).

Columns and labels:
[1] = test system: K562 cells; assay: Anti-proliferative activity against K562 cells; assay type: cell-based; details: Homo sapiens
[2] = test system: Jurkat cells; assay: MTT cell growth/viability assay in Jurkat cells; assay type: cell-based; details: activated Jurkat cells
Protocol: Cell growth assay (MTT) with photo-NSAIDs and NSAIDs. Jurkat cells were seeded in a 96-well flatbottomed cell culture plate (Falcon) in RPMI with 10% FBS and 1% penicillin/streptomycin at a density of 1×10^5 cells/mL and maintained for 24 hours at 37° C. and 5% CO2 atmosphere. Cells were treated with photo-NSAIDs or NSAIDs in triplicate at different doses and incubated for 24 hours at 37° C. MTT solution (10 μL, 5 mg/mL) was added to each well and gently mixed. The cells were incubated for 4 hours at 37° C., followed by addition of 0.1 mL isopropanol with 0.04 N HCl to each well. The resulting mixture was mixed thoroughly by repeated pipetting. The absorbance was measured within 1 hour on a multi-mode microplate reader with a wavelength of 620 nm.

[3] = test system: histone H2A; assay: Cellular thermal shift assay probed for histone H2A in Jurkat cells; assay type: cell-based
Protocol: Cell thermal shift assay (CETSA) with photo-NSAIDs and NSAIDs. Jurkat cells in 15 mL of FBSfree RPMI at a density of 2.5×10^6 cells/mL were incubated with 50 μM of tag 7, photo-NSAIDs or NSAIDs for 2 hours in a 5% CO2 atmosphere at 37° C. The cell suspension was then collected and centrifuged for 3 minutes at 300×g and the culture medium was aspirated. The cell pellets were re-suspended and washed with PBS (2×15 mL) by centrifugation. PBS (1 mL) supplemented with EDTA-free protease inhibitors (1×) was added to each tube, and the resulting cell suspension was equally distributed into eight different 0.2 mL PCR tubes. The PCR tubes were heated over a temperature gradient (37-62° C.) for 20 minutes in a 96-well thermal cycler, followed by repeated freeze-thaw cycles (5×). The PCR tubes containing the resulting cell lysates were centrifuged at 20,000×g for 30 minutes at 4° C. to pellet cell debris together with precipitated and aggregated proteins. Each supernatant with the soluble protein fraction was transferred carefully to a new tube and analyzed by Western blot. The Western blot bands were quantified by ImageJ, and the data were fitted to obtain apparent Tagg values using the Boltzmann Sigmoid equation within GraphPad Prism.

[4] = biological target: T1, COX-2 (Homo sapiens, UniProt P35354); assay: In-vitro photolabeling of COX-2 with photo-NSAIDs and analysis by LC-MS/MS; assay type: binding; details: 10 μM
T1 sequence (P35354 18-604): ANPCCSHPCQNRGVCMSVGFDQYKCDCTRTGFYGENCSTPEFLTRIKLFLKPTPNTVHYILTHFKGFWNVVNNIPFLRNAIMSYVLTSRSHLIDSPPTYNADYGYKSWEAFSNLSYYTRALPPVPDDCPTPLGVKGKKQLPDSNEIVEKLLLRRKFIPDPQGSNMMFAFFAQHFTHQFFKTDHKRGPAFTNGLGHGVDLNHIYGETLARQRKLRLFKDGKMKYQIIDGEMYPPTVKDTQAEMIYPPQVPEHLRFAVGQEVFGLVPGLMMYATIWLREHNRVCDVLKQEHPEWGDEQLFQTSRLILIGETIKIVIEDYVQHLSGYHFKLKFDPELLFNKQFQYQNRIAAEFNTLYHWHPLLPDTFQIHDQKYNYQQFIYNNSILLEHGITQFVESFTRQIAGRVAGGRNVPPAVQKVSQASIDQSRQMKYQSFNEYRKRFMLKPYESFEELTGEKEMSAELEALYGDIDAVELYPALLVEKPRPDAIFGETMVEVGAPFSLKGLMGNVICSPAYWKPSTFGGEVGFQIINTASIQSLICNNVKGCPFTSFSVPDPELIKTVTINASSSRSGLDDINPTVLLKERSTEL
Protocol: Recombinant COX-2 (1 μg) was separately incubated with each of the photo-NSAIDs (10 μM) or the tag 7 (10 μM) for 30 minutes at 37° C., and photo-irradiated for 15 minutes at 4° C. The samples were then tagged with the cleavable biotin azide probe 10 by copper-click chemistry for 3 hours at 24° C., followed by sample digestion with trypsin for 12 hours at 37° C., and probe cleavage with 2% formic acid. The resulting peptides were analyzed by LC-MS/MS. MS data was searched in Proteome Discoverer v2.2 with SEQUEST HT or Byonic v2.1 against the recombinant COX-2.
Data analysis procedures.

[5] = biological target: X-ray repair cross-complementing 6 (XRCC6) (Homo sapiens, UniProt P12956); assay: SIM-PAL conjugated peptide PSM count, XRCC6; details: aggregate across Jurkat and K562 cells
X-ray repair cross-complementing 6 (XRCC6), sequence (P12956 2-609 limits assumed): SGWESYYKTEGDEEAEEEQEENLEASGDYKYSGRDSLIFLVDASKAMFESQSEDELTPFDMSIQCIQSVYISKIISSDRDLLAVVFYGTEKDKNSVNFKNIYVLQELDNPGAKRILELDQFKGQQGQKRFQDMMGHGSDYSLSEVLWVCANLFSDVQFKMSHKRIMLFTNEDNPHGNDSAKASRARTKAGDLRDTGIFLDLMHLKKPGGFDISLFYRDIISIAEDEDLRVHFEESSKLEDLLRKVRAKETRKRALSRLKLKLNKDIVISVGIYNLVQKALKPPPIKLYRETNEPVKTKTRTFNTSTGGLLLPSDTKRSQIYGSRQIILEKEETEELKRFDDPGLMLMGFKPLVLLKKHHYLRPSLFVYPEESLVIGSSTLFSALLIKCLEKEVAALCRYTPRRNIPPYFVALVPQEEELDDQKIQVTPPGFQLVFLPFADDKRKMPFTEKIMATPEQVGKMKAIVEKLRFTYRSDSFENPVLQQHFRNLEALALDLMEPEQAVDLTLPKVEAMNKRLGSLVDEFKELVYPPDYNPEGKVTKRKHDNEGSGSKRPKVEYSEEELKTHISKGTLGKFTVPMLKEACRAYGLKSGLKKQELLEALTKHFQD
X-ray repair cross-complementing 6 (XRCC6), sequence (P13010 2-732 partner limits assumed): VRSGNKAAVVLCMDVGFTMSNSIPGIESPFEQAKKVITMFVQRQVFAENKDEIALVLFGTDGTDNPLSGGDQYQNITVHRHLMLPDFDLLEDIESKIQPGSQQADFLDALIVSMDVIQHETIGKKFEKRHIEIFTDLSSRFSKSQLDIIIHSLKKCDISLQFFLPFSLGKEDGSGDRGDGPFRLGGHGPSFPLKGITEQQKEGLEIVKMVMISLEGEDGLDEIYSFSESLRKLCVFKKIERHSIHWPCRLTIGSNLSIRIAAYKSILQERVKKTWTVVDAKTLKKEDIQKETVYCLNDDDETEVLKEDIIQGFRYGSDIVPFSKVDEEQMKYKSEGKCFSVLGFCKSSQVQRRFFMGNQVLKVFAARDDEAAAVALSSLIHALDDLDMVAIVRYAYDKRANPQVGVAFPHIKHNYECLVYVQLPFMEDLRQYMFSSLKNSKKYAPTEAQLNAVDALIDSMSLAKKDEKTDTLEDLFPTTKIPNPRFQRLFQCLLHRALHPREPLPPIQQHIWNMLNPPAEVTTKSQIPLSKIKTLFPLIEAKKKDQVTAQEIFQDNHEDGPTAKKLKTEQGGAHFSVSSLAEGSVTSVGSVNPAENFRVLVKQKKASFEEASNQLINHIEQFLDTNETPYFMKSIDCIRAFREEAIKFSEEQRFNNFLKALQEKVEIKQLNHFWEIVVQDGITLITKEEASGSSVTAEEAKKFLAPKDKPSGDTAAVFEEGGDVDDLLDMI

[6] = biological target: Histone H4 (HIST1H4A) (Homo sapiens, UniProt P62805); assay: SIM-PAL conjugated peptide PSM count, histone H4; details: aggregate across Jurkat and K562 cells
[7] = biological target: Cathepsin D (CTSD) (Homo sapiens, UniProt P07339); assay: SIM-PAL conjugated peptide PSM count, cathepsin D; details: aggregate across Jurkat and K562 cells
Cathepsin D (CTSD), sequence (P07339 65-412): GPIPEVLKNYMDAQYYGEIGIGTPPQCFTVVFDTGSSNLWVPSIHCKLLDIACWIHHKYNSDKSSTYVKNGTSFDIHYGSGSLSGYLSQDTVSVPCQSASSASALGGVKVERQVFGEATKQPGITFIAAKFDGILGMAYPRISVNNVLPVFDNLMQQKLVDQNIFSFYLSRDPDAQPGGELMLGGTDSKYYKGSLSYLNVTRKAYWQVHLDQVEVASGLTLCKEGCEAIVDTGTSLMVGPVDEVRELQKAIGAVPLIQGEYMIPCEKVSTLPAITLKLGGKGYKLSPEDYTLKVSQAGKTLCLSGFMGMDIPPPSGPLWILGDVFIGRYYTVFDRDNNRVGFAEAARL

[8] = biological target: Nucleophosmin (NPM1) (Homo sapiens, UniProt P06748); assay: SIM-PAL conjugated peptide PSM count, nucleophosmin; details: aggregate across Jurkat and K562 cells
Nucleophosmin (NPM1), sequence (P06748 whole entry): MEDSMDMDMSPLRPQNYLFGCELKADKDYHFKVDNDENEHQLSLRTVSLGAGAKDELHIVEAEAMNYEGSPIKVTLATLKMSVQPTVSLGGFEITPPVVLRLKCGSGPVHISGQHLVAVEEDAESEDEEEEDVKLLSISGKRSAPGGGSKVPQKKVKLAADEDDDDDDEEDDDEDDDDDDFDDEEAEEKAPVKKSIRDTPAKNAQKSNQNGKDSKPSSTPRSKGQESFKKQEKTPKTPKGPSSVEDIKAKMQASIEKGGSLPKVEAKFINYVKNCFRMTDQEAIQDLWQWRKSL

[9] = biological target: Actin, cytoplasmic 1 (ACTB) (Homo sapiens, UniProt P60709); assay: SIM-PAL conjugated peptide PSM count, actin cytoplasmic 1; details: aggregate across Jurkat and K562 cells
[10] = biological target: Histone H2B type 1-K (HIST1H2BK) (Homo sapiens, UniProt O60814); assay: SIM-PAL conjugated peptide PSM count, histone H2B type 1-K; details: aggregate across Jurkat and K562 cells
[11] = biological target: T2, Elongation factor 1-alpha 1 (EEF1A1) (Homo sapiens, UniProt P68104); assay: SIM-PAL conjugated peptide PSM count, elongation factor 1-alpha 1; details: aggregate across Jurkat and K562 cells
T2 sequence (P68104 1-462): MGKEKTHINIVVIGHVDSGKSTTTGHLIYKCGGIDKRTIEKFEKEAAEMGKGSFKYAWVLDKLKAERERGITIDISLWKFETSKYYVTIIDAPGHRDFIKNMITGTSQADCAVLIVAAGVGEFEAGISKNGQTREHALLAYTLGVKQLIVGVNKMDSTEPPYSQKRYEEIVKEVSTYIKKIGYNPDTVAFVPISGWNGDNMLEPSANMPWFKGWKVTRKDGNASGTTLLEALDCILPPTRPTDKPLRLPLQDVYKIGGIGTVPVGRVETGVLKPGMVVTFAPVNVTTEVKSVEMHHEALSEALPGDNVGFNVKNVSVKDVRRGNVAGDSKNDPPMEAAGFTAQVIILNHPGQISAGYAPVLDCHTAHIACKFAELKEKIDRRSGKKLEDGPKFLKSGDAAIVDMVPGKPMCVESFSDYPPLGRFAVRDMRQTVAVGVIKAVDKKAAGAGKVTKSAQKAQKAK

Question: `CO[C@@]12[C@H](COC(N)=O)C3=C(C(=O)C(C)=C(N)C3=O)N1C[C@@H]1N[C@@H]12` [Mitomycin] was tested. Which EC50 [1] did it give?
Answer: 34.9 µM

Question: For `C#CCCC1(CCOc2cc(C(F)(F)F)nn2-c2ccccc2)N=N1` [celecoxib analog 9, 5-(2-(3-(but-3-yn-1-yl)-3H-diazirin-3-yl)ethoxy)-1-phenyl-3-(trifluoromethyl)-1H-pyrazole], which “anti-proliferative activity (in words)” value [2] is on record?
Answer: attenuated anti-proliferative activity

Question: And the “stabilization of histone H2A relative to the tag 7” value [3]?
Answer: 10-15 °C

Question: `C#CCCC1(CCOc2cc(C(F)(F)F)nn2-c2ccc(S(N)(=O)=O)cc2)N=N1` [photo-celecoxib (5), 4-(5-(2-(3-(but-3-yn-1-yl)-3H-diazirin-3-yl)ethoxy)-3-(trifluoromethyl)-1H-pyrazol-1-yl)benzenesulfonamide] was tested. Which “stabilization of histone H2A (in words)” value [3] did it give?
Answer: stabilized histone H2A

Question: What about the “PSMs of conjugated peptides on recombinant COX-2” value [4] of the same molecule?
Answer: 14

Question: What about the “number of conjugated peptides observed on recombinant COX-2” value [4] of the same molecule?
Answer: seven

Question: And the “Count of PSMs, NLEALALDLMEPEQAVDLTLPK” value [5]?
Answer: 3

Question: What about the “Count of PSMs, ISGLIYEETR” value [6] of the same molecule?
Answer: 10

Question: What about the “Count of PSMs, AIGAVPLIQGEYMIPCEK” value [7] of the same molecule?
Answer: 2

Question: And the “Count of PSMs, MSVQPTVSLGGFEITPPVVLR” value [8]?
Answer: 7

Question: What about the “Count of PSMs, VAPEEHPVLLTEAPLNPK” value [9] of the same molecule?
Answer: 14

Question: What about the “Count of PSMs, AMGIMNSFVNDIFER” value [10] of the same molecule?
Answer: 12

Question: And the “Count of PSMs, VETGVLKPGMVVTFAPVNVTTEVK” value [11]?
Answer: 7

Question: How did the “Count of PSMs, NLEALALDLMEPEQAVDLTLPK” value [5] turn out when `C#CCCC1(CCOC(=O)NC2CCC(=O)NC2=O)N=N1` (stereo not drawn) [photo-glutarimide 8, 2-(3-(but-3-yn-1-yl)-3H-diazirin-3-yl)ethyl (2,6-dioxopiperidin-3-yl)carbamate] was run?
Answer: 2

Question: Which “stabilization of histone H2A (in words)” value [3] does the source give for `C#CCCC1(CCNC(=O)Cc2c(C)n(C(=O)c3ccc(Cl)cc3)c3ccc(OC)cc23)N=N1` [photo-indomethacin (6)] here?
Answer: did not

Question: And the “Count of PSMs, ISGLIYEETR” value [6]?
Answer: 1

Question: What about the “Count of PSMs, AIGAVPLIQGEYMIPCEK” value [7] of the same molecule?
Answer: 3

Question: What about the “Count of PSMs, MSVQPTVSLGGFEITPPVVLR” value [8] of the same molecule?
Answer: 1

Question: And the “Count of PSMs, […]” value [9]?
Answer: 3

Question: And the “Count of PSMs, AMGIMNSFVNDIFER” value [10]?
Answer: 1

Question: How did the “stabilization of histone H2A (in words)” value [3] turn out when `C#CCCC1(CCOc2ccc3cc([C@H](C)C(=O)O)ccc3c2)N=N1` [photo-naproxen (4), (S)-2-(6-(2-(3-(but-3-yn-1-yl)-3H-diazirin-3-yl)ethoxy)naphthalen-2-yl)propanoic acid] was run?
Answer: stabilized histone H2A

Question: What about the “PSMs of conjugated peptides on recombinant COX-2” value [4] of the same molecule?
Answer: 19

Question: What about the “number of conjugated peptides observed on recombinant COX-2” value [4] of the same molecule?
Answer: six

Question: And the “Count of PSMs, NLEALALDLMEPEQAVDLTLPK” value [5]?
Answer: 7

Question: What about the “Count of PSMs, ISGLIYEETR” value [6] of the same molecule?
Answer: 2

Question: And the “Count of PSMs, AIGAVPLIQGEYMIPCEK” value [7]?
Answer: 4

Question: And the “Count of PSMs, MSVQPTVSLGGFEITPPVVLR” value [8]?
Answer: 7

Question: What about the “Count of PSMs, VAPEEHPVLLTEAPLNPK” value [9] of the same molecule?
Answer: 3

Question: And the “Count of PSMs, AMGIMNSFVNDIFER” value [10]?
Answer: 41

Question: And the “Count of PSMs, VETGVLKPGMVVTFAPVNVTTEVK” value [11]?
Answer: 5
